14 molecules from publication PMC12136788 can be followed below.

The chains are these.
B1: chr4:68310386:68314098:-|three_prime_utr|ENSG00000083896|control|control|control (ssRNA)
RNA: GGGAGUUCUACAGUCCGACGAUCGCACUGAUUGUUUAAAGAUACAAAAAAUCUUGUAUUUUUUUUUUGUGUGUGUUUACAAGUAGUAAAUUUAUUUUCAGCUGUCUGCCUAUGAAGUUCAUUGUGUAGAAGGAUUUAUUAUGACAACAGAGGAUUGAGCAUCA
B2: ENSG00000156853:stop:overlap|stop_codon|ENSG00000156853|stop_codon|NA|stop_codon (ssRNA)
RNA: GGGAGUUCUACAGUCCGACGAUCCCCCAAACUGUAGCCCUAGAUCUGCUAUCGGGGGCUCCAGUCAGAGGGGCAACGCCCAUUAGAAGGGGAAGGACUGCCUACGUUCAUUUCAUUUUAUGGAGGGUCCCAGAAAAGGGAAGGCAACAGAGGAUUGAGCAUCA
B3: chr17:35577220:35577322:-|CDS|ENSG00000108733|unk|FALSE|unique (ssRNA)
RNA: GGGAGUUCUACAGUCCGACGAUCUCUAUUAUGUUCCUGGUUCUUCUUCCCUAUCUGAAAGUGAAGCUGGAGAAGCUGGUUUCUAGCCUGAGAGAAGAGGAUGAAUAUUCUAUUCAUCCCCCUUCUUCCCGCUGGAAACGAUUUCAACAGAGGAUUGAGCAUCA
B4: chr3:48621462:48621756:-|CDS|ENSG00000183396|control|control|control (ssRNA)
RNA: GGGAGUUCUACAGUCCGACGAUCUACCAGGUGGGGCUGGACUUGCAGCCCUGGGGGUGUCAGCCAAAGAGUGUGGAGGGCUGUAGGGGUGGCCUGAGCUGUCCUGGCUACUGGCUGGGCCCUGGAGCAAGCCGCAUCUACCCCCAACAGAGGAUUGAGCAUCA
B5: chr12:21491601:21491717:-|CDS|ENSG00000004700|unk|FALSE|unique (ssRNA)
RNA: GGGAGUUCUACAGUCCGACGAUCGCUGCCUCCCAUAGCUCUAACUGAGGAACUGGAUUCUAUAACCAGUGAGCUACAUGCAGUAGAAAUUCAAAUUCAAGAACUUACGGAAAGGCAACAAGAGCUUAUUCAGAAAAAAAAAGUCAACAGAGGAUUGAGCAUCA
B6: chr7:107760707:107760808:+|3pUTR|ENSG00000105879|unk|FALSE|unique (ssRNA)
RNA: GGGAGUUCUACAGUCCGACGAUCAAACAUGAAAUAUGUAGUAUGCAGAUAUCAUUUAUUAGAUAGUUUGUAGUGUAUACAUUUAGAACAUACUUCUUUUGACAAAGGGUGAUCUGAUUGCUAAUUUACCAUUUUAUUCUGUCACAACAGAGGAUUGAGCAUCA
B7: chr6:77462233:77463403:-|CDS|ENSG00000135312|control|control|control (ssRNA)
RNA: GGGAGUUCUACAGUCCGACGAUCACCCUUCUUCAUCAUCUCCCUAGUGAUGCCUAUCUGCAAAGAUGCCUGCUGGUUCCACCUAGCCAUCUUUGACUUCUUCACAUGGCUGGGCUAUCUCAACUCCCUCAUCAACCCCAUAAUCAACAGAGGAUUGAGCAUCA
B8: chr9:19276226:19276327:+|CDS|ENSG00000137145|unk|FALSE|unique (ssRNA)
RNA: GGGAGUUCUACAGUCCGACGAUCCUUUGUCGUAGCUGGUCUCACUGACACAUCUACUCUUUUGGAUCAAGAAAUAAAUCGUUUAGAUACUAAGUCAACUGGACCUAAAGCUCCAAUUACAGACAUUGCCAUUAUUAUCAAAUCCAACAGAGGAUUGAGCAUCA
B9: chr21:14485227:14485911:-|three_prime_utr|ENSG00000155307|control|control|control (ssRNA)
RNA: GGGAGUUCUACAGUCCGACGAUCCCCAACUAUAUAUCUACAGAUGCAUUCCAUUUUAACUCUUCUUGAGCUAAAACGUCAAAUAGGAGAGGAAGAUAAGAUAAAUAUUUGUAAAUAAAACCUAAAGUUUAAAUGUUUUAAUCUCAACAGAGGAUUGAGCAUCA
B10: chr5:36035020:36035974:-|three_prime_utr|ENSG00000168671|control|control|control (ssRNA)
RNA: GGGAGUUCUACAGUCCGACGAUCAGACAUAAGGCCAGGUGCAGCCUUGGCGGGGUCUGUUUGGUGGGCGAUGUCACCAUUUCUAGGGAGCUUCCCACUAGUUCUGGCAGCCCCAUUCUCUAGUCCUUCUAGUUAUCUCCUGUUCAACAGAGGAUUGAGCAUCA
B11: ENSG00000227500:stop:overlap|stop_codon|ENSG00000227500|stop_codon|NA|stop_codon (ssRNA)
RNA: GGGAGUUCUACAGUCCGACGAUCGCAACAGCCUGCCCGAGUACCCCACUGUGCCCAGCUACCCGGGCAGUGGCCAGUGGCCUUAGAGGGAGCCUGCCCUGCCCCCACCGCCCACCACCUCCUCCCCUUCAUUCCUGCUGCUACCAACAGAGGAUUGAGCAUCA
B12: chr6:132328510:132328611:-|CDS|ENSG00000079931|msi1|total|mutant (ssRNA)
RNA: GGGAGUUCUACAGUCCGACGAUCUUGUGGGAUGUUGCCGGGUGGUCUUAUUUAUUGUGUCCUCCCUCUCAUUUAUGUUCGUGCCGGUUGAGCCAGUGAUACAGAGAGGCCAUGAGAGUCUGGUGCACCACAUCCUGCUCUAUCCAACAGAGGAUUGAGCAUCA
B13: chr1:234405902:234406099:-|CDS|ENSG00000059588|control|control|control (ssRNA)
RNA: GGGAGUUCUACAGUCCGACGAUCCCUUAUAGUUGUGCUGCAGUGGUGUUUCAAUCACAAUUUUAGUGUUCGACUGUAUGCUUUAGUUGCUCUUAAGAAACUCUGGACUGUGUGUAAAGUGUUAAGUGUUGAAGAAUUUGAUGCCAACAGAGGAUUGAGCAUCA
B14: chr13:46895483:46895906:-|CDS|ENSG00000102468|control|control|control (ssRNA)
RNA: GGGAGUUCUACAGUCCGACGAUCAGUGUCCCUAGAGAAAAAGCUGCAGAAUGCCACCAACUAUUUCCUGAUGUCACUUGCCAUAGCUGAUAUGCUGCUGGGUUUCCUUGUCAUGCCCGUGUCCAUGUUAACCAUCCUGUAUGGCAACAGAGGAUUGAGCAUCA

Some of the results follow.

This assay deals with MSI1 full-length (mouse, UniProt Q61474 1-362). As to the kind of experiment: nsRBNS (natural sequence RNA bind-n-seq); RBNS binding buffer (assumed for nsRBNS): 25 mM Tris pH 7.5, 150 mM KCl, 3 mM MgCl2, 0.01% Triton X-100, 500 ug/ml BSA, 20 U/ml SUPERase-In, 4 C; UNK is unkempt and MSI1 is Musashi-1; names of the RNAs are library labels; protein concentration not given here; high values mean tight binding.
UniProt Q61474, sequence (Q61474 whole entry): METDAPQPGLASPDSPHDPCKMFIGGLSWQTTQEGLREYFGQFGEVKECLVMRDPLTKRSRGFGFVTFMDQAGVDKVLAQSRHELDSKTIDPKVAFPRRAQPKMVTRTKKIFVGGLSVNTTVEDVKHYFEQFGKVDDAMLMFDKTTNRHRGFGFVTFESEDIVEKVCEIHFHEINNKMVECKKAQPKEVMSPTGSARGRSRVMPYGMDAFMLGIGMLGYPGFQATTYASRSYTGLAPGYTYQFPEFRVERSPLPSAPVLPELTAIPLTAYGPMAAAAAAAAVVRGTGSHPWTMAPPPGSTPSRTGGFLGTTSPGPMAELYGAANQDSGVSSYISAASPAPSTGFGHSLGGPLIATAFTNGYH
Molecule B1 yielded a binding signal of 1.55 enrichment R.
With B2, the binding signal was determined as 1.01 enrichment R.
With B3, the binding signal turned out to be 0.266 enrichment R.
The result for B4 reads 0.472 enrichment R; that for B5, 0.401 enrichment R; that for B6, 56.7 enrichment R.
As for B7, the binding signal is 0.7 enrichment R.
As for B8, the binding signal was 0.992 enrichment R.
In turn, B9 had a binding signal of 1.2 enrichment R.
Turning to B10, the binding signal was determined as 1.29 enrichment R.
B11: the binding signal was 0.675 enrichment R.
B12 yielded a binding signal of 0.479 enrichment R.
The result for B13 reads 0.964 enrichment R; that for B14, 0.65 enrichment R.
